Measurements published in the supplement of paper PMC11417369.
Some of the results follow.

Test system: PfSIP2 AP2 domain 1 (GST-tagged)
Experiment: gcPBM binding intensity (ln(normalized median fluorescence intensity)); higher = stronger DNA binding
Procedure, shortened: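 In this array assay, P. falciparum DNA-binding domains with a GST tag, expressed in E. coli, were applied for 1 h to primer-extended double-stranded 36-bp intergenic genomic probes and negative controls on an Agilent 4 × 180k array. Bound protein was visualised with Alexa488 anti-GST antibody at 488 nm. Binding intensity is the highest Masliner-normalised natural-log median intensity across replicate spots of either probe orientation.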

| Sequence | gcPBM binding intensity (ln) |
| --- | --- |
| ATTTAACTAAAGAAGGCACACGTGTTTAAAAAAAAA [CACACA_site5241] | 6.97 |
| CATTTATATATATACACACACACAAAAAAAAAAAAA [CACACA_site2645] | 7.1 |
| GACGTTATGATACACATACACACAGGGATAAAAAAT [CACACA_site2882] | 7.12 |
| AATATTATATTTTATTGTACTAATAAAAATATATGC [XGTACX_site5435] | 7.16 |
| TATATATATATATATGCATGTACATATATTTGTTAT [TGCATGCA_site379] | 9.76 |
| TTTTTTTTTTTTTTTTGTACTTAAAAATTTATATAA [XGTACX_site7718] | 6.95 |
| AATATAGTTCAATATACACACCCCTTTATTCATTTT [CACACA_site3625] | 6.78 |
| GTAACATACACATATACACACACACCGATATACATA [CACACA_site8278] | 7.26 |
| ATTAATTAAGGCACATGTACAAAATATTTTTTATAA [XGTACX_site1964] | 7.16 |
| TATACAATCTATATAACACACATATTTATATAAAAT [CACACA_site1797] | 7.1 |
| ACAAAACGAACATACGCATGTGTGTACATTAATATA [TGCATGCA_site922] | 7.12 |
| TTATTTACATCAAGTACATGCAGTAAAAAAAAAAAA [TGCATGCA_site351] | 7.07 |
| CACCAATTCCTATGCACACACATCTGCATATTATAT [CACACA_site5049] | 7.55 |
| ATATAATATATGTATACACACATATTATATAATATT [CACACA_site3699] | 6.8 |
| ATGAACAGTTCATGTTGTACAATCTCCATTTTTTAC [XGTACX_site3933] | 6.89 |
| CAATATAAAAAACACACACACAAACATATATTTATA [CACACA_site3703] | 6.97 |
| TGTCGGCTTAGATTAGTGCACTGAAAAATGAAGTAT [GTGCAC_site9919] | 10.5 |
| TATTTATATAAAAATACACACATGAATGGATATATA [CACACA_site6335] | 6.91 |
| TTTCGATTAAAAATTGTACAATATAAGGAGCACACA [GTGCAC_negctrl_site476] | 7.5 |
| AACCACAGACATATAACACACATATACAATATATAT [CACACA_site5142] | 7.3 |
| CTTTTTTTGACCTTAGTGCAAATAACTATATATTAT | 7.79 |
| TAAAAAAAAAAATGAACATGCAACAATTGTGATGAA [TGCATGCA_site332] | 6.61 |

| Sequence | gcPBM binding intensity (ln) |
| --- | --- |
| ACTGTAACAATCATGGGTACAAATAAAATAATATCT [XGTACX_site99] | 7.16 |
| ATGAAAATTATAAAGTGTACATATAGAAACATTTAC [XGTACX_site8047] | 6.98 |
| TTTTGTCTTATATGTTGTACAACGTAAACAAAAAAA [XGTACX_site4412] | 7.52 |
| AAAAGAATATATAATTGTACTTAAAATATAATTAAG [XGTACX_site4484] | 6.86 |
| AAAAAAATTAAACATGAAGAATAAGGAACAAAAAAA [CACACA_negctrl_site1607] | 6.9 |
| TTTAATCATATGTTATATAATAAGCCCCCCCCCCAA [CACACA_negctrl_site486] | 10.2 |
| ATTTAAGTAGTACATACACACACATATACAAAAAGA [CACACA_site9317] | 7.39 |
| ATGGGACATATATATACACACATATATATATATATA [CACACA_site1202] | 9.42 |
| ACATCTCTTATATATTCACACACATATATATAATTA [CACACA_site8424] | 7.34 |
| TTAAAAAATTTTTAAGCACACACATAGATAATATAT [CACACA_site8440] | 7.27 |
| TTTTTTTTTTAATTCGCACACTGTCTTCATGCAATT [CACACA_site4882] | 8 |
| GCACATCTATATGAAACACACATGGAAACATCTCTT [CACACA_site7793] | 7.07 |
| AGCATTAAAAATGGAATGGAATTAAGCTATATATTA [CACACA_negctrl_site1571] | 6.63 |
| GAAACTTCAAGAAATGCACACAATAAAATAAATAAA [CACACA_site1549] | 7.65 |
| AGTATATATTATATATATATATATATATTATATATG [TGCATGCA_negctrl_site99] | 7.34 |
| ATAGAATATTATATTACACACAGAATAATAAAAAAT [CACACA_site86] | 6.92 |
| CATTTCGAAAAAAAATGTACTTATTATATTTATATA [XGTACX_site6752] | 6.8 |
| TGTATATATTATAAAAGTACATAATATTCTTAGATA [XGTACX_site5623] | 6.84 |
| TTATCTTACATAAATTATAACAATAATATGTGTATA [XGTACX_negctrl_site379] | 6.7 |
| ACCATACATACATACACACACACACCCATATATATA [CACACA_site2917] | 7.52 |
| TTTCATGTTTTAAAGTGTACATAAATATATTATATG [XGTACX_site3367] | 7.15 |
| TTGTGTTTGCGTAAATGTACGGAAAGACTTGAAGAC [XGTACX_site7235] | 7.66 |

| Sequence | gcPBM binding intensity (ln) |
| --- | --- |
| TTTTTAATAAAATGATTGATAATTATTAAATTAAAA [CACACA_negctrl_site488] | 6.53 |
| TTGTTAGAGTATATTGAAAGGATAACCTTTTTTTAT [XGTACX_negctrl_site122] | 6.7 |
| TAACATATCTTTAATACACACTTAAAAAAGTACTTA [CACACA_site4532] | 6.97 |
| ACACTTAAATATTGTTGTACAAAATGATAAAATGTA [XGTACX_site4588] | 7.13 |
| GGAAACACAATATATACACACATATATATATATATA [CACACA_site235] | 9.14 |
| TTGATGTATACAATGTAGATTATTTAATATTTCAAT [GTGCAC_negctrl_site203] | 6.75 |
| TTATATAACCCTCATGCATGCTAAGAAAAAAAAAAC [TGCATGCA_site936] | 7.07 |
| ATTTATATTATAATATGTACACAAAAAAAATTAGGA [XGTACX_site565] | 7.19 |
| TAAAAAGGAAAACACACACACACATATATATATATA [CACACA_site3588] | 9.59 |
| ATTTTTAAGCATATCAAAAAAAAAAAAAAAATTAAT [CACACA_negctrl_site980] | 6.73 |
| TTATTATTAAGACACACACACAAAAAAAAAAAAAAA [CACACA_site6805] | 7.23 |
| TTTCCAATTAGTTTTGCATGTTGAAAAAATGTTGGA [TGCATGCA_site1035] | 6.8 |
| TATTTTAACTTCTCATGTACATATATTATGTCTATA [XGTACX_site249] | 7.22 |
| TATCATAAACTTCCTTACTATACTTTTCTTATTCAT [CACACA_negctrl_site1341] | 6.85 |
| CTTTGTAGTATATTAACACACAACTATTTATAATAT [CACACA_site3934] | 7.1 |
| TAGATACAGAAACACACACACACATACATATATACA [CACACA_site3437] | 6.99 |
| TTATGGAGAGTTATATGTACGAAAAATATGTATAAG [XGTACX_site515] | 7.27 |
| AGAATTATTGTTAATGCATGTGGAAGTTAAAATATT [TGCATGCA_site188] | 7.25 |
| TATTTAAATTGTAAGTGTACATATATAAATGTAAAA [XGTACX_site1609] | 7.11 |
| TATATAGTAATTTATTCACACAATTGGCACACCTCA [CACACA_site4679] | 6.98 |
| TATAATATATATTTGTGTCCACAACATTTTTAATAT [XGTACX_site2089] | 7.25 |
| TAGATACATACACGCACACACATATATAAATAAATA [CACACA_site6157] | 7.47 |

| Sequence | gcPBM binding intensity (ln) |
| --- | --- |
| TTACGTATGTATTATGTTGTATATGAAATTAAAAAA [GTGCAC_negctrl_site292] | 7.09 |
| AAAAAAAACAGACACACACACATACACATACATACA [CACACA_site2857] | 7.14 |
| TAATTATGTACTATTATACACACGTTTAATTGTAAA [CACACA_site206] | 7.15 |
| AATAATATATGGTGTACACAAAAGTATAAATAATTT [CACACA_site5338] | 7.15 |
| TATAAAAAAATAATAAATAAATAAAAAGATTTCTTT [TGCATGCA_negctrl_site122] | 6.78 |
| TTGTGAATAACTAAGAAGAAAAAGATAAATATGTAT [TGCATGCA_negctrl_site388] | 7.14 |
| TATTCATGCATATACACACACATATATTTATATTTT [CACACA_site7786] | 7.11 |
| AATAATATTGAAATGTGTACGTATTTATATTTTATG [XGTACX_site8252] | 7.01 |
| TTTTGTTATATTCAATATTTATATATTATAAATATA [CACACA_negctrl_site1705] | 7.21 |
| TTTTTCTTTTTTACAGTGCATAAATATATGTATTGT [GTGCAC_site9399] | 7.9 |
| AGCCATTATAATTCTTGTACATAATATAGCTATTTT [XGTACX_site1723] | 6.98 |
| GAGCACCAAAATATATGTACATATGATAAATGTGAA [XGTACX_site1130] | 7.32 |
| ACATATATATAATATATATTTTTCGTGTGGTGTCAC [CACACA_negctrl_site543] | 6.97 |
| ATCATTGAAGTTAAAAATATAAAGTATTCAGAAGGG [XGTACX_negctrl_site560] | 7.26 |
| AATATATATATAGGATGTACACATAATTCAAATATA [XGTACX_site2755] | 7.16 |
| TCACTTTTATAATATAATATTCTATATCTTATTTTT [GTGCAC_negctrl_site717] | 6.95 |
| TTTTTTATTTTATTTTTTTCTGCTTATCCACATTAG [XGTACX_negctrl_site108] | 7.01 |
| TTTACACTTTTTTTTGTACACACTAATAAGATTAAC [CACACA_site9304] | 7.31 |
| TTTTAATTAAATACAAAAAAAAAAAAAAAAAAAAAA [CACACA_negctrl_site1631] | 6.78 |
| AAAAAAATTTTTAAAAGTACATTAATATTAATATGT [XGTACX_site5177] | 7.06 |
| ACATTACAATTATTATAATCAATATATAACCTCTAA [TGCATGCA_negctrl_site105] | 7.2 |
